The full ranking holds about 4,500 sequences; the median of “median log2 fold change of GCK-ALFA target abundance (FLAG IP / Myc IP barcode read proportion)” is about 0.078, and the lowest 2% start at about -0.6. This is one part of the list.
B1: GBRAP_9_7154 (protein)
chain: MEELLKKVKEVIEDAFEEISKVVPEEVKPLVEELRKKAEERFEKLAKDPNVTKEEIVKEAKEILKELEEEISKKVSPEIKKIVRAIVLTAELEIEEIAEE
B2: GBRAP_160_4531 (protein)
chain: EEFLKKAEELIEEAAEEAIELVKGETVEQRIVIIEMEFGAVAMELAEDERASDEMVDVVLDERDKLVATLRANPDLTDEEIAALIEEMRDRIIEKLRELY
B3: GBRAP_43_5774 (protein)
chain: SKELVDGAADFALLAAESPEIPEDQKVKAIKAFFDLAADEGYLDEEKMKAVIDAAGKSLSAEALKEVLAHLKELAAKNPKLAEKLKAAAKRVEAAIKAKE
B4: GBRAP_83_6960 (protein)
chain: MITVVASSKKESIKSAVEAAIDLHLEEGIEVELEIFVTKENVETVVEELKKAIKAGVNVEVTLIGKESIKEELEKAKEEIEKAAKEYGVNVKVEVIVEEE
B5: GBRAP_9_7146 (protein)
chain: MEEMVEKIREVMEDAFEEVREIVPEEVKPLVDELREEALKRFEEVVADKSKTKEEIREAAKELIEEFTERVSEKVSPEIAKMVEAIGLTAKLEIEEIYEE
B6: GBRAP_139_3712 (protein)
chain: TPPEELVARARAIVAAHRDDLERLARLLAELMASADDETALAIARAAAEELADFSWEQWERLIELVEEELRKLGMDEDRVLAIAGEMEAVFAQHELAKEA
B7: GBRAP_48_5827 (protein)
chain: ATPPLEKLEELVRETVEEMKEVYEEAKKEGLSREEILRMIKALLGDLALELEEAGFEKAAEFLRDPENREELAEKLLELFDEGKYEEAYKYLLEKLREAE
B8: GBRAP_128_3525 (protein)
chain: SVEEARKRAEEVVEKIKNSTVEEAREITREFLEWLLGLSLEEVEAAAEVLEENLPKLSAEKLDAVADAIRENLGRFSPEKQRELLGVEVAALNEAEEKEE
B9: GBRAP_128_3586 (protein)
chain: SVEAVRAETRALMAAMKTADDATAKALATELAARFTTLSLEEAEAAAEVIEEELPGLSAEHLDILADALRAALPAMTPEKAELAADVLVAALNEAEEKDE
B10: GBRAP_35_5569 (protein)
chain: STDETIVEMTVNTIEALTLAVPDLDPATLETITRQVVALAREVIEDIKNNLEGLKRILEALRALLAAIRARGLDDPHLQAAAAAVEEAIRLAEKAIKEAE
B11: GBRAP_160_4005 (protein)
chain: SAEIEALIKEIEELVKETKEWMKGLSPEERLTLARGMVGEIIQLAIDSPAVSDETEDKIAEIGDETIARLEANANASLEVWEKILDDYLEKVKELLKSDE
B12: GBRAP_128_3453 (protein)
chain: SVEELRKKAEEIMEKIINSSLEEVPALAEELVDLIASSDLEGAEAIAEVVEEKLPKLSEEKLGILIDVLVARRPELSPEKAAVALEIAVAAGEEALEKME
B13: GBRAP_95_7083 (protein)
chain: SEDLEIAEDLMYTAVDLYDAGLKEQAARAIKAALDELEELGYKVEDKELLEKLLRYAVELALEHFDAEEVERMLKIAEKSGAPQEIIDALKEVLAKLKAA
B14: GBRAP_125_3098 (protein)
chain: SREELLEALRRIALALGFSEEDAEELARLAAEGSLRQTLVALFLAEGYEEVADLVAQLTEEQAAELVRRLAEYLEAHPDLTKEEVVEKAKELAEELLAEA
B15: GBRAP_128_3347 (protein)
chain: IDKEKVEEAEKLIKEMLTADKEEAKKLADELMEKLLTMSLEEVKEVVKIAKKLLPKYTAEQLDILADALREHRPLFTPEKAEEVNDLEVEALNEAEEKEE
B16: GBRAP_117_2581 (protein)
chain: EEERERVKEELRETVRRAGEELKAAESLSPEERERVEREVRERIREAVRRALEVLSEDEVLDIVEEELLKFDAETYFRVSLFVEEAIEEIRREREEEERR
B17: GBRAP_14_3806 (protein)
chain: MEERKKVVEEGVEETIEIVKEILADAPEEVREAVVKLIEEARDKIIEENLNPDEVAELTDELVAEVKKIMADLPEEVRAQVVAAIETGFGEIILEIEELE
B18: GBRAP_52_5951 (protein)
chain: ALEEALALLREALAAVLAGDEERARAILRELVAEFDLETIRAAAVALAKSLAGADDATLEAAVRLFDMLEDELIEAGVDEEEAELIRGDALAALAKAHAA
B19: GBRAP_80_6807 (protein)
chain: AEKRLEEALKKIEEVDPELAKKAKEIVELARKMGVSEETLAEFAEALAKLAEVDVEKAKELLEETKEDLEEEEKEGNTANAEAVLRVYAGEFLLEVEELE
B20: GBRAP_78_6637 (protein)
chain: EIEEKLEEALELVDEAAKLALELPEDLRNEILAELVDAASYIEEAIEEGGDLEEIKEAIEELEEALELLEAENRPELEPLREKVKEALEIAKKVEKEVKK
B21: GBRAP_184_5283 (protein)
chain: TVRHVEIEAETAAEAIAALEAAAAEARAAGARLDVTLLLRDADVAGALALFDLLKALRDEGIIRSATVGLEREVSDEELDTLLAAADAAGVRLVVAIPDE
B22: GBRAP_83_6906 (protein)
chain: MSVVAVNLTPENGEARVAEAVDIVVEEGWDLEILVGTDPAEVDAAVALFDRLNASGKKVRVEVVVVGRDEAAVRAAAARIRAAVAAQPNVELEELVEEVL
B23: GBRAP_137_3650 (protein)
chain: MKVVIELEEIDGLGVLTIKVYDPEKAEEIEELVLDIADKNKVYAVSIEREEDGTLVITVEGEIEVIEKFLKELVKELEEKYGLKAKEEEVDGKKVITLEK
B24: GBRAP_95_7080 (protein)
chain: DDDLEEVEILASTAIDLYEAGLKEAAAKAFRAALDELKELGYKVKDKELAIELLRYFADLALEHFTLEEVEEAIEAAKKIGAPEELIKRLEEKAEELKKR
B25: GBRAP_26_5467 (protein)
chain: MDAAFAAARDRIDAIAAKLPDPRAAAALRALADTELLELEERIEAGEDIDAAVDAARDAFLAEAREILEDAGLPEELIAKTLAEFEAVFDDLRAALKAAQ
B26: GBRAP_160_4733 (protein)
chain: EERIKELVEEALELFLEAVDDTEDLSKEEALAVYEGAAGESLMDFIEDPFVSDEMEDTAAEMLDELVEELKANYDASVEEKKEIVKEKMEELLEKLLKLS
B27: GBRAP_52_6220 (protein)
chain: SAEEAKKLAKEIVETVKKEGVEAAVKLLKEIAKKNSPELVTAVLDEIVELAKEESLEVAEKLLEALLKAEDDLIAAGVSEADVSDAIAGLAAVAVELEKK
B28: GBRAP_52_6171 (protein)
chain: SAEKARKMAEELLEAIKAGDEEKVKKILEEIAKNYTDEEIAAMLREVAKRVPSLSPEDQERVVEAALELEDIAVKAGHDENVLQIEVARVAAAAYDALQA
B29: GBRAP_166_4937 (protein)
chain: SVEEALERLRKLIKEALERMKTANAEERTELWIEVGEALREAREAGVSREEILEAVREFLEGVKELGWNIRIAAGIIINEADFTEEEIDEVWAIVDEILA

The binders below were run against GABARAP, O95166 (assay: median log2 fold change of GCK-ALFA target abundance (FLAG IP / Myc IP barcode read proportion) (log2 ratio); each designed protein is fused to an ALFA-tag nanobody in HEK293 cells to bring the named protein to FLAG-tagged glucokinase (GCK); Myc marks an untargeted standard; higher = target protein stabilised (more abundant)). Details: target protein: 3xFLAG-MCP-GCK-ALFA reporter; HEK293 landing pad (RPLP).
Procedure, shortened: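 Binders fused to an ALFA nanobody were recombined as a library into HEK293 landing-pad cells, which were induced with 2 μg mL^−1 doxycycline and then transfected to express a FLAG-tagged target and a Myc-tagged standard. After 48 h, circular RNA barcodes recovered by anti-FLAG and anti-Myc immunoprecipitation of lysates were reverse transcribed, amplified and sequenced. Each binder's target abundance is the median log2 ratio of FLAG to Myc barcode read proportions, from barcodes present at ≥10^−7 in both replicates, binders carrying ≥3 barcodes per replicate, a 10^−6 pseudocount and pooled replicates.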

Sequence of GABARAP, O95166 (O95166 whole entry, the tested form may be a part): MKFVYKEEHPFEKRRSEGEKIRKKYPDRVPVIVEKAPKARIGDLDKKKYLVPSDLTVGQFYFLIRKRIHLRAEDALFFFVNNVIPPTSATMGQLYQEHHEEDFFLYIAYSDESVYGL

B1 and B2 are within 0.2 log units of each other in “median log2 fold change” value: 0.173 for the first, 0.116 for the second.

B3 and B4 are within 0.2 log units of each other in “median log2 fold change” value: 0.315 for the first, 0.267 for the second.

B5 and B6 are within 0.2 log units of each other in “median log2 fold change” value: 0.209 for the first, 0.189 for the second.

B7 and B8 are within 0.2 log units of each other in “median log2 fold change” value: 0.199 for the first, 0.0693 for the second.

Compared with B9, B10 is lower in “median log2 fold change” value: 0.296 for the first, -0.994 for the second.

First: B11
Second: B12
The “median log2 fold change” value of the first is higher: 0.201 for the first, -0.0866 for the second.

B13 and B14 are within 0.2 log units of each other in “median log2 fold change” value: 0.184 for the first, -0.000994 for the second.

B15 and B16 are within 0.2 log units of each other in “median log2 fold change” value: 0.388 for the first, 0.266 for the second.

B17 and B18 are within 0.2 log units of each other in “median log2 fold change” value: 0.0344 for the first, -0.0929 for the second.

Going from B19 to B20, the “median log2 fold change” value rises from -0.289 to 0.066.

B21 and B22 are within 0.2 log units of each other in “median log2 fold change” value: -0.0718 for the first, -0.148 for the second.

B23 and B24 are within 0.2 log units of each other in “median log2 fold change” value: 0.447 for the first, 0.264 for the second.

First: B25
Second: B26
The “median log2 fold change” value of the first is higher: 0.199 for the first, -0.474 for the second.

First: B27
Second: B28
The “median log2 fold change” value of the first is higher: 0.267 for the first, -0.631 for the second.

B29 was tested, and the “median log2 fold change” value was 0.252.
